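A five-concentration, 48-hour dose response in 96-well plates underlies each endpoint, interpolated linearly between surrounding concentrations. Here, GI50 denotes the concentration required for 50% inhibition of growth.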 Activity calls are given as the source filed them. Cut-off read from the data, not from the text of the source: active = GI50 up to about 1.1 µM and inactive = higher.
tested on: NCI-H322M; experiment: inhibition of tumour cell growth, NCI panel, 48 h

SMILES	GI50
O=C(NN1C(=O)C(Cl)C1c1ccc([N+](=O)[O-])cc1)c1ccccc1O (stereo not drawn)	inactive: > 100 µM
Cc1cc(-c2nc3ccccc3s2)ccc1N	inactive: 48.1 µM
c1cncc(CNCc2cccnc2)c1	inactive: > 100 µM
Clc1ccc(OCc2nnc(CCCCCCCCc3nnc(COc4ccc(Cl)cc4)n3Nc3ccccc3)n2Nc2ccccc2)cc1	inactive: 24.2 µM
O=C(COC(=O)c1cccc2c(=O)c3ccccc3[nH]c12)Nc1ccc(S(=O)(=O)Nc2ncccn2)cc1	inactive: 43.7 µM
N#Cc1c(-c2ccc([N+](=O)[O-])cc2)cc(-c2ccc(Nc3ccnc4cc(Cl)ccc34)cc2)nc1N	inactive: 21.3 µM
CC1(C)CC(=O)C(=CNc2nc(-c3ccc(Br)cc3)cs2)C(=O)C1	inactive: 35.6 µM
C1CN2CCNCCN(CCN1)CC2	inactive: > 100 µM
COP(=O)(CC(=O)C1OC(OCc2ccccc2)C(OCc2ccccc2)C(OCc2ccccc2)C1OCc1ccccc1)OC (stereo not drawn)	inactive: 23.4 µM
COc1cc(/C=N\N(C)C)cc(/C=N/N(C)C)c1O	inactive: 26.8 µM
N[C@H](COCc1ccccc1)c1ccccc1	inactive: 31 µM
COc1ccc(-c2cc(-c3ccccc3)n(C3OCC(OC(C)=O)C(OC(C)=O)C3OC(C)=O)c(=S)c2C#N)cc1 (stereo not drawn)	inactive: > 100 µM
CCCCSCC(NC(=O)/C=C/c1c(C)[nH]c(=O)[nH]c1=O)C(=O)OC (stereo not drawn)	inactive: 31.1 µM
C[C@]12CCC3[C@@H](CC[C@@H]4c5nonc5CC[C@]34C)C1C/C(=N/O)C2=O (stereo partly drawn)	inactive: 74.3 µM
CCCCCCCCC(=O)NCCCNCCCNC(=O)CCCCCCCC	inactive: 9.46 µM
COc1cc(/N=N/c2cccc(S(N)(=O)=O)c2)c2ccccc2c1N	inactive: 14.4 µM
CCN(CC)c1ccc2cc(-c3nnc(-c4ccccc4O)o3)c(=O)oc2c1	inactive: 7 µM
COC(=O)C(=O)c1cc2ccccc2n1S(=O)(=O)c1ccccc1	inactive: > 100 µM
c1ccc2c(c1)N[C@@H]1c3[nH]c4ccccc4c3CC[C@H]21	inactive: 14.8 µM
CCOC(=O)C1N(S(=O)(=O)c2ccc(C)cc2)CCC12c1ccccc1NC2c1ccc(OC)c(OC)c1 (stereo not drawn)	inactive: > 100 µM
CC1(C)C(=O)/C=C\C(=O)C(C)(C)C(=O)/C=C\C(=O)C(C)(C)C(=O)/C=C\C(=O)C(C)(C)C(=O)/C=C\C1=O	inactive: > 61.5 µM
C=C(C)[C@H]1CC(=O)/C(C)=C\CC/C(C)=C/CC[C@@]2(C)O[C@@H]2C1	inactive: 77.1 µM

SMILES	GI50
CCOc1ccccc1Nc1nc(C)c(C(=O)CC(=O)C(=O)Nc2ccccc2)s1	inactive: > 100 µM
N#Cc1c(O)c(/C=N/c2ccc(Cl)cc2)c(=O)n2c1[nH]c1ccccc12	inactive: > 100 µM
N#Cc1c2ccccc2c(Cc2ccc3c(c2)OCCOCCOCCOCCOCCO3)c2ccccc12	inactive: 14.6 µM
O=C(COc1ccc2c(=O)cc(-c3ccccc3)oc2c1)N1CCN(c2ccccc2)CC1	inactive: > 100 µM
CC1=NNC(=S)NCCCN2CCN(CCCNC(=S)NN=C(C)C=NNC(=S)NCCCN3CCN(CCCNC(=S)NN=C1)CC3)CC2	inactive: > 100 µM
O=C(O)c1ccccc1C(=O)OCC1CCCN2CCCCC12 (stereo not drawn)	inactive: > 100 µM
CN1CCCCC(C#N)(c2ccccc2)CC1 (stereo not drawn)	inactive: > 100 µM
Cc1ccc(N(C)S(=O)(=O)c2ccccc2[N+](=O)[O-])cc1	inactive: > 100 µM
CN(C)CC1(C)CC/C(=C\c2ccccc2)C1=O (stereo not drawn)	inactive: > 100 µM
CNC(=O)CC1NC(=O)c2csc(n2)-c2ccc(-c3nc(C4=NC(C(=O)N5CCCC5C(N)=O)CO4)cs3)nc2-c2csc(n2)-c2csc(n2)C(C(C)C)NC(=O)CNC(=O)c2csc(n2)C(C(C)C)NC(=O)c2nc1sc2C (stereo not drawn)	active: 0.0165 µM
CC1(C)CC(=O)C(=[N+]=[N-])C(=O)C1	inactive: > 100 µM
Cc1ccc([N+](=O)[O-])c2c(NCCCN(C)C)ccnc12	inactive: > 100 µM
O[C@H]1[C@@H]2OC[C@@H](O)[C@H](OCc3ccccc3)[C@@](COCc3ccccc3)(O2)[C@@H]1OCc1ccccc1	inactive: 14 µM
COc1ccc(N(C)CN(C)c2nc(N(C)C)nc(N(C)C)n2)cc1	inactive: > 100 µM
O=S1(=O)c2ccccc2N2CCCc3cc(Cl)cc1c32	inactive: > 100 µM
CCOC(=O)C(=O)N/N=C1\C(=O)Nc2ccccc21	inactive: > 100 µM
Cc1nc(-n2nc(-c3ccccc3)cc2-c2ccccc2)sc1C(=O)CC(=O)C(=O)Nc1ccc(O)cc1	inactive: > 100 µM
Cc1ccc(S(=O)(=O)N/N=C(\CCN2CCCC2)CC(c2ccccc2)c2c(O)c3ccccc3oc2=O)cc1 (stereo not drawn)	inactive: > 100 µM
CCN(CC)c1c(C(=O)/C=C/c2ccc(F)cc2)c(-c2ccccc2)nn(C)c1=O	inactive: 5.36 µM
COC(C)(C)/C=C/c1[nH]c2ccccc2c1CC(=O)NCCc1cn(C(c2ccccc2)(c2ccccc2)c2ccccc2)cn1	inactive: 7.38 µM
[O-][s+]1c2c(Cc3ccccc3)c(Cc3ccccc3)c1CCc1cccc(c1)CC2	inactive: 16.3 µM
CC1=C(C)C(=O)OC(C(C)(O)C2(O)CC3OC34C3CC(O)C56OC5C=CC(=O)C6(C)C3CCC42C)C1 (stereo not drawn)	inactive: 6.28 µM

SMILES	GI50
COc1ccc(CNc2ccn(C3OC(CO)C(O)C3O)c(=O)n2)cc1 (stereo not drawn)	inactive: > 100 µM
CC1=C2CCCC2=C/C(=N/Nc2ccc([N+](=O)[O-])cc2[N+](=O)[O-])CC1	inactive: > 100 µM
Cc1ccccc1OC(C)C(=O)NN1C(=O)CC(=O)N(c2ccccc2)C1=S (stereo not drawn)	inactive: 64.1 µM
C[C@]12CC(c3ccccc3O1)C(C#N)C(=O)N2 (stereo partly drawn)	inactive: > 100 µM
N#C/C1=C(\N)CCSSSC1	inactive: 54.8 µM
CCOC(=O)c1c(NC(=O)OC)c(C#N)c2n1CCCCC2	inactive: > 100 µM
CC(=O)NC1C(OCc2ccccc2)OC(COC(=O)CCCCCNc2ccc([N+](=O)[O-])c3[nH]c4ccc(O)cc4c(=O)c23)C(O)C1OC(C)C(=O)N[C@@H](C)C(=O)N[C@H](CCC(=O)OCc1ccccc1)C(N)=O (stereo partly drawn)	inactive: 2.72 µM
Cc1cc([N+](=O)[O-])c(C)c2c1[nH]c1ccc(/C(CCC3CCCC3)=N\N)cc12	inactive: 17.3 µM
COc1cc2ccnc3c2c(c1OC)-c1coc(SC)c1-3	inactive: > 100 µM
CC1=C(c2ccccc2)NC(=S)C(C)C(c2ccccc2)=N1 (stereo not drawn)	inactive: 49.8 µM
C/C(=N\O)c1cccc(Nc2c3ccccc3nc3occc23)c1	inactive: 24.9 µM
C=CCC(N(C)C(=O)[C@H](Cc1ccccc1)NC(=O)OCc1ccccc1)P(=O)(Oc1ccccc1)Oc1ccccc1 (stereo partly drawn)	inactive: > 100 µM
O=C1N[C@H](C(=O)O)[C@@H](c2ccc(OCc3ccccc3)cc2)O1	inactive: > 100 µM
Cc1ccc(-c2nc3cc(Cl)ccc3[nH]2)cc1	inactive: > 100 µM
Cc1cccc(CP(Cc2cccc(C)c2)CC2(Cp3c4ccccc4c4ccccc43)COC2)c1	inactive: > 100 µM
CC(=O)Nc1nc(C)c(S(=O)(=O)NC(=O)N2c3ccccc3CCc3ccccc32)s1	inactive: > 100 µM
O=C1c2ccccc2C(=O)N1CCCC(=O)n1cc(F)c(=O)[nH]c1=O	inactive: 27.7 µM
CCOC(=O)N1N=C(/C(C)=N/OC)C(C)[S+]1[O-] (stereo not drawn)	inactive: > 100 µM
CCCCCc1c2nc(c(CCCCC)c3ccc([nH]3)c(CCCCC)c3nc(c(CCCCC)c4ccc1[nH]4)C=C3)C=C2	inactive: > 100 µM
COCCOc1cc(C)cc(/C=C(C)/C=C/C2=C(C)CCCC2(C)C)n1	inactive: > 100 µM
C#C[C@]1(O)CC[C@H]2[C@@H]3CCC4=C/C(=N/OCCN(C)C)CC[C@]4(C)[C@H]3CC[C@@]21C	inactive: 30.5 µM
CC(O)C1(CNc2cc(Cl)nc(N)n2)CCC1 (stereo not drawn)	inactive: > 100 µM

SMILES	GI50
O=c1sc2ccccc2n1CC1CS1 (stereo not drawn)	inactive: > 100 µM
CC1(c2cccs2)CC(c2cccs2)=C(C#N)C(=C(C#N)C#N)N1 (stereo not drawn)	inactive: 16.2 µM
Cc1cc2ccccc2n1CC(=O)NCC(C)C	inactive: > 100 µM
COC(=O)C1=C(C)NC(C)=C(C(=O)OC)C1c1ccc(NO)cc1	inactive: 32 µM
O=C(O)CCSC(=O)Nc1cccc2ccccc12	inactive: > 100 µM
Cc1ccc(/C=C2\N=C(N3CCCC(CO)C3)NC2=O)cc1 (stereo not drawn)	inactive: > 100 µM
C1OC1CN1CCN(CC2CO2)CC1 (stereo not drawn)	inactive: > 100 µM
COc1nc2nccnc2c(=O)n1C	inactive: > 10 µM
C(=C\c1ccccc1)/C=N/c1ccc2c(c1)Cc1ccccc1-2	inactive: > 100 µM
N#Cc1c(-c2cccc(Br)c2)cc(-c2ccc(Cl)cc2)nc1N	inactive: 31.1 µM
N#C/C(=C\c1ccc2[nH]ccc2c1)C(=O)NCCCCNC(=O)/C(C#N)=C/c1ccc2[nH]ccc2c1	inactive: > 31.6 µM
C1CSC(Sc2nc(SC3=NCCS3)nc(SC3=NCCS3)n2)=N1	inactive: > 100 µM
Cc1nc(Nc2ccc(Cl)cc2)sc1C(=O)NNC(=O)C(=O)NN	inactive: 30.8 µM
Nc1nc2c(ncn2Cc2ccccc2CCO)c(=O)[nH]1	inactive: > 100 µM
COC(=O)C1=CC2CCCC1(O)C(C(C)=O)C2 (stereo not drawn)	inactive: > 100 µM
O=C(NN1C(=O)C(Cl)C1c1ccc(Cl)cc1)c1c(Cl)c(Cl)c(Cl)c(Cl)c1-c1nc2ccccc2[nH]1 (stereo not drawn)	inactive: 27.2 µM
CC(=O)OC(C)(C)CCC(=O)[C@](C)(O)[C@H]1[C@H](O)C[C@@]2(C)[C@@H]3CCc4c(cc(OC5OC(CO)C(O)C(O)C5O)c(O)c4C)C3(C)C(=O)C[C@]12C (stereo partly drawn)	inactive: > 100 µM
COC1OC2=CCC3C(=O)NC(=O)C3C2[C@H](OCc2ccccc2)C1OCc1ccccc1 (stereo partly drawn)	inactive: 16.6 µM
Cn1cnc(S[C@H]2[C@H]3C(=O)C=C4S[C@H]5C[C@]42C2=C(N5)C(=O)c4[nH]cc5c4C2=[N+]3CC5)c1C[C@H](N)C(=O)O	inactive: 14 µM
COC(=O)c1ccc2[nH]c3c(c2c1)CC(=O)Nc1ccccc1-3	inactive: > 100 µM
O=c1c(C(c2ccc([N+](=O)[O-])cc2)c2c(O)oc3ccccc3c2=O)c(O)oc2ccccc12	inactive: > 100 µM
COc1ccc(/C=C/c2cc(OC)c(OC)c(OC)c2)cc1	inactive: 24.5 µM

From ChEMBL document CHEMBL1201862, “PubChem BioAssay data set” (2004)
